Laboratory results as given in PubChem BioAssay AID1461 (National Center for Advancing Translational Sciences (NCATS), 2008).
About 2,300 (1%) of roughly 220,000 compounds were called active. The inconclusive results got no clear call from the source; some entries with a clear call stand among them for comparison. Calls follow the shape of the dose curve; as a rule, active = well fitted inhibition curve with a large enough effect; inconclusive = small, poorly fitted or top-dose-only effect, or effect the other way; inactive = no such curve, though single readings can be large or run the other way. Potencies of inconclusive entries are left out as doubtful fits.

biological target: Neuropeptide S receptor (Homo sapiens) (UniProt Q6W5P4); test: qHTS Assay for Antagonists of the Neuropeptide S Receptor: cAMP Signal Transduction; details: CHO-NPSR cells, cAMP TR-FRET, antagonist mode; series mostly up to 38.3 µM; also: nearly all actives have a fitted effect of over 50% in size
Chain of UniProt Q6W5P4 (Q6W5P4 whole entry, looked up): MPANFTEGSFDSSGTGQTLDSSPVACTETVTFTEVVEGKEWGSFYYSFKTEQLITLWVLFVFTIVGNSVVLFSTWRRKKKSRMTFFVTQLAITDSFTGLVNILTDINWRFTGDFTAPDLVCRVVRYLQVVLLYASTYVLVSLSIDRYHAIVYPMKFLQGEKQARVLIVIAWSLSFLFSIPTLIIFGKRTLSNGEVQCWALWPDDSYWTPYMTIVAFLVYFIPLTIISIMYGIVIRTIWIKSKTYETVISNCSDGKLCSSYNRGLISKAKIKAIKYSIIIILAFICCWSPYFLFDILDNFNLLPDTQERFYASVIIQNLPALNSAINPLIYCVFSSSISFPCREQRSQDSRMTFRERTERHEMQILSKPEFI
Potency is read from the fitted curve at half-maximal effect; tags tell the direction and shape of the fitted curve.

Row | Compound | Potency
1 | COc1ccc(NC(=O)N/C=C/c2ccco2)cc1 | inactive
2 | CC(=O)Nc1c(O)nc(SCC(=O)N2CCN(c3ccc(F)cc3)CC2)[nH]c1=O | inactive
3 | CCn1ccnc1CN1CCc2c([nH]c3ccccc23)C1C1CCCCC1 (configuration not stated) | inconclusive [inhibitor, single point]
4 | Cc1cc2cc(CNC(=S)NC3CCCCC3)ccc2[nH]1 | inactive
5 | Cc1ccc2nc(NC(=O)C3CCCN(S(=O)(=O)c4cccc5nsnc45)C3)sc2c1 (configuration not stated) | inconclusive [inhibitor, single point]
6 | COCCNC(=O)C(c1cccs1)N(C(=O)Cn1nnc2ccccc21)c1ccc(OC)cc1 (configuration not stated) | inconclusive [activator, single point]
7 | COC(=O)c1c(C(=O)OC)c2cc(C(=O)c3ccccc3)ccn2c1Cl | inconclusive [inhibitor, single point]
8 | COc1ccc(C(=O)NC(Nc2ccc(C)cc2)C(Cl)(Cl)Cl)cc1 (configuration not stated) | inconclusive [inhibitor, single point]
9 | O=C(CSc1nc(-c2ccc(F)cc2)cs1)N1CCc2ccccc21 | inconclusive [inhibitor, single point]
10 | N#C/C(=N\Nc1ccc(Cl)cc1)C(=O)c1ccccc1 | active: 12.6 µM
11 | CCc1cc2cc(C(=O)N3CCN(Cc4ccccc4)CC3)sc2s1 | inconclusive [inhibitor, single point]
12 | CCCc1cc(NCc2ccccn2)n2nc(C)c(-c3ccccc3)c2n1 | inconclusive [activator, partial curve]
13 | CN1CCN(C(=O)c2ccc3nc(-c4ccccc4)c(-c4ccccc4)nc3c2)CC1 | inactive
14 | Cc1cc(C)n(-c2nnc(C)n2/N=C/c2ccccc2OCc2ccccc2Cl)n1 | inconclusive [inhibitor, single point]
15 | Cc1ccc(NC2=NC(c3ccc(O)cc3)n3c(nc(C)cc3=O)N2)cc1 (configuration not stated) | inconclusive [inhibitor, full curve, poor fit]
16 | O=C(/C=C/c1ccco1)Nc1ccccn1 | inconclusive [activator, full curve, poor fit]
17 | Cc1ccc2nc(N/N=C\c3ccc([N+](=O)[O-])o3)nc(-c3ccccc3)c2c1 | inconclusive [inhibitor, single point]
18 | N#C/C(=C\Nc1ccccc1O)c1nc2ccccc2o1 | inconclusive [inhibitor, single point]
19 | CCCCCCc1cc2cc(-c3nnc(-c4ccccc4)o3)c(=O)oc2cc1O | inconclusive [inhibitor, single point]
20 | O=C1C=C(Nc2ccc(Cl)cc2)CC(c2ccc(Cl)cc2)C1 (configuration not stated) | inconclusive [inhibitor, single point]
21 | CCCOC(=O)c1c(NC(=O)CCC(=O)O)sc2c1CCCCC2 | inactive
22 | COc1ccc2cc3c(N)c(C(=O)N4CCCC4)sc3nc2c1 | inactive
23 | O=S(=O)(c1ccc2c(c1)OCCO2)N1CCC(c2nc3ccccc3s2)CC1 | inconclusive [inhibitor, single point]

Row | Compound | Potency
24 | CC1=CCC(C(=O)N/N=C/c2cccs2)C(c2ccc(F)cc2)C1 (configuration not stated) | inconclusive [inhibitor, single point]
25 | O=C(O)CN(CCN(CC(=O)O)CC(=O)O)CCN(CC(=O)O)CC(=O)O | inactive
26 | C=CCn1c(=O)c2c3c(sc2n2c(Nc4ccc(OC)cc4)nnc12)CCCC3 | inconclusive [inhibitor, single point]
27 | CC(C)(CO)Cc1cc(C(C)(C)C)c(O)c(C(C)(C)C)c1 | inconclusive [inhibitor, single point]
28 | O=C(Nc1cc(C(F)(F)F)ccc1N1CCOCC1)c1ccc(Br)o1 | inconclusive [inhibitor, partial curve, poor fit]
29 | CCn1ncc(C2=NOC(C(=O)Nc3ccc4c(c3)OCO4)C2)c1C (configuration not stated) | inconclusive [inhibitor, full curve, poor fit]
30 | CC(C)c1ccc(-c2nc(N3CCOCC3)[nH]c(=O)c2C#N)cc1 | inconclusive [inhibitor, partial curve]
31 | CCCc1nc2sc3ccccc3c(=O)c2c(=O)n1Cc1ccc(OC)cc1 | inconclusive [activator, partial curve]
32 | O=C(NCc1ccccc1)C1=C[C@@H](c2ccc(C(F)(F)F)cc2)C[C@@H](OCc2ccc(CO)cc2)O1 | inconclusive [activator, full curve]
33 | CCCC1(CCC)NC(=O)N(CC(=O)c2cc(C)n(-c3ccc4c(c3)OCO4)c2C)C1=O | inconclusive [inhibitor, single point]
34 | CC1=CC(C)(C)N(C(=O)c2ccccc2)c2ccc(C)cc21 | inconclusive [inhibitor, partial curve]
35 | CCN(CC)c1ccc(/C=N/N2CCN(Cc3cccc4ccccc34)CC2)c(O)c1 | inconclusive [inhibitor, single point]
36 | COCCOC(=O)C1=C(C)NC2=C(C(=O)CC(C)(C)C2)C1c1cc2c(cc1Br)OCO2 (configuration not stated) | inconclusive [inhibitor, single point]
37 | Cc1cc(-n2c(C)cc(C(=O)CN3C(=O)NC4(CCCCC4C)C3=O)c2C)no1 (configuration not stated) | inconclusive [inhibitor, single point]
38 | O=C1CC(c2ccccc2)CC(O)=C1C=NCCN1CCN(Cc2ccccc2)CC1 (configuration not stated) | inactive
39 | Cc1ccc(OCC2Cn3c(nc4c3c(=O)n(C)c(=O)n4C)O2)cc1 (configuration not stated) | inconclusive [inhibitor, single point]
40 | COC(=O)c1ccc(C2/C(=C(\O)c3ccc(OC)c(C)c3)C(=O)C(=O)N2c2cc(C)on2)cc1 (configuration not stated) | inconclusive [inhibitor, single point]
41 | CC1(C)Cc2ccccc2-c2nc(CN3CCOCC3)[nH]c(=O)c21 | inconclusive [activator, single point]
42 | O=C(c1cc(-c2ccco2)on1)N1CCc2ccccc2C1 | inconclusive [inhibitor, partial curve]
43 | Cc1ccc(-c2cc(C(=O)N3N=C(C(F)F)CC3(O)C(F)F)c3ccccc3n2)cc1C (configuration not stated) | inconclusive [inhibitor, single point]
44 | CCCCCCc1nnc(NC(=O)OCC)s1 | inconclusive [inhibitor, partial curve]
45 | CCc1ccc2oc(C(=O)NCc3ccncc3)c(C)c2c1 | inactive
46 | CCN(C(=O)Cn1c(=O)n(Cc2ccccc2)c(=O)c2ccccc21)c1cccc(C)c1 | inconclusive [inhibitor, single point]

Row | Compound | Potency
47 | C/C(=C\c1ccccc1)C(=O)N1CCN(c2cccc(C(F)(F)F)c2)CC1 | inactive
48 | CC(C)(C)OC(=O)[C@H](Cc1ccccc1)NC(=O)c1[nH]cnc1C(=O)Nc1ccc(Cl)cc1 | inconclusive [inhibitor, single point]
49 | COc1ccc(CCNC[C@@H](O)c2ccc(O)cc2)cc1OC | inconclusive [inhibitor, single point]
50 | CCOC(=O)C1=C(C)N=c2s/c(=C/c3ccco3)c(=O)n2C1c1cccc(OC)c1 (configuration not stated) | inconclusive [inhibitor, full curve, poor fit]
51 | Cc1ccccc1-c1nc(-c2ccc(NC(=O)c3cccs3)cc2)no1 | inconclusive [inhibitor, single point]
52 | CCOC(=O)C1=C(C)N=C2c3ccccc3C(=O)C2C1c1ccc(C)cc1 (configuration not stated) | inconclusive [inhibitor, partial curve]
53 | O=C(CN1CCN(c2nc(-c3ccc(F)cc3)cs2)CC1)NCc1ccc2c(c1)OCO2 | inconclusive [inhibitor, single point]
54 | O=C(NCc1ccccc1F)c1ccc2c(c1)OCO2 | inactive
55 | COc1cc(C(=O)N/N=C(\c2ccccc2)c2ccccn2)cc(OC)c1OC | inconclusive [inhibitor, single point]
56 | CC(C)C[C@H](NC(=O)c1nc[nH]c1C(=O)NCc1ccccc1)C(=O)OC(C)(C)C | inconclusive [activator, single point]
57 | CCOC(=O)COc1ccccc1/C=C\[N+](=O)[O-] | active: 7.94 µM
58 | CCCN1C(=O)SC(CC(=O)Nc2ccc(C)cc2)C1=O (configuration not stated) | inactive
59 | CC(C)C(c1nnnn1C1CCCC1)N1CCc2ccccc21 (configuration not stated) | inconclusive [inhibitor, partial curve]
60 | CC1=C(C(=O)Nc2ccccc2F)C(c2ccsc2)C2=C(CC(c3ccccc3)CC2=O)N1 (configuration not stated) | inconclusive [inhibitor, partial curve]
61 | O=C(CC(c1ccccc1)c1ccccc1)OCn1nnc2ccccc2c1=O | inconclusive [inhibitor, single point]
62 | COc1ccc(C(c2nnnn2Cc2ccccc2)N2CCN(c3ccccc3)CC2)cc1 (configuration not stated) | inconclusive [inhibitor, single point]
63 | Cc1ccc(-c2c(C(=O)NC(C)C)oc(=O)c3ccccc23)cc1 | inactive
64 | O=c1ccc(=O)n(-c2ccccc2)[nH]1 | inactive
65 | CCOC(=O)c1cccc(-n2c(C)cc(C=O)c2C)c1 | inactive
66 | C(=N\Nc1nc(-c2ccccn2)nc2ccccc12)/c1ccccc1 | inconclusive [activator, partial curve]
67 | CCOC(=O)c1sc(=NC(=O)c2cccs2)n(C)c1C | active: 3.16 µM
